Measured values published in PubChem BioAssay AID488969 (Vanderbilt High Throughput Screening Facility, 2010).
Whole data set: some 110,000 compounds, median “z-score” near -0.1, cut for the highest 2% near 2. The list shows a part of the results.

target: Metabotropic glutamate receptor 8 (Rattus norvegicus) (UniProt P70579); assay: rat mGluR8 modulators via GIRK flux, primary screen, cell-based, thallium flux, HTS (AID 488969); details: HEK293 rat mGluR8, GIRK (G protein-gated inwardly rectifying potassium channel) thallium flux, FluoZin2; at 10 µM; stronger effect = higher value; submaximal glutamate (EC20) added with thallium
Sequence of UniProt P70579 (P70579 whole entry, looked up): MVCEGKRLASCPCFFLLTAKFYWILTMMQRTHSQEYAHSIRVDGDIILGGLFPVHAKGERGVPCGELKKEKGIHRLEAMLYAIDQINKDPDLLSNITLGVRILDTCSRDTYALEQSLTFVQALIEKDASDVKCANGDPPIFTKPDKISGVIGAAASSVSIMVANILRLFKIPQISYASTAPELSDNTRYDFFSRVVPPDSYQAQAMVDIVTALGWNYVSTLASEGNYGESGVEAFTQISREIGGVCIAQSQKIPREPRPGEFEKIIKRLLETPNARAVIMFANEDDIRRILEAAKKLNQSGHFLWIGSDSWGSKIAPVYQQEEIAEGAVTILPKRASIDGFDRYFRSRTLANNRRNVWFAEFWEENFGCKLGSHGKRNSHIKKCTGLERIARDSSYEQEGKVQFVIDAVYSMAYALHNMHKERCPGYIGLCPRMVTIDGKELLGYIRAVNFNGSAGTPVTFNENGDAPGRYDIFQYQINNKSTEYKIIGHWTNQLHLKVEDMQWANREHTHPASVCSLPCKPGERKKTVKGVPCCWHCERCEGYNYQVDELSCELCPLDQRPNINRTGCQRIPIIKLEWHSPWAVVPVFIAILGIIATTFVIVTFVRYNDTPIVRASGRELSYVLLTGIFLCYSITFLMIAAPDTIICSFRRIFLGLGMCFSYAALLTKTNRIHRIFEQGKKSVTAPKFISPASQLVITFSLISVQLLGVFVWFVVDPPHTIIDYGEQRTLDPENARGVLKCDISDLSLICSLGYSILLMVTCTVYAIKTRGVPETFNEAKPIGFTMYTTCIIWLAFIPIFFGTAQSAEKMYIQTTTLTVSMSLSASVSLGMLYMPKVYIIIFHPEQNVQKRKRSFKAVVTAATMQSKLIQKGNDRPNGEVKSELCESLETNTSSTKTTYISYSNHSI

Structure (SMILES)	z-score
Cc1ccc(/C=C/C(=O)N2CCN(Cc3ccccc3)CC2)o1	-0.286
NC(=O)C1(N2CCCCC2)CCN(C(=S)Nc2ccc(Cl)cc2)CC1	0.0327
CC(C)c1ccc(Nc2nc(NCc3ccco3)nc(N3CCOCC3)n2)cc1	-0.278
CN1/C(=C/C(=O)C2CCC2)Sc2ccccc21	0.401
CN1C(=O)C(O)(CC(=O)c2ccncc2)c2ccccc21 (stereo not given)	-0.00178
Cc1cc(C)n(C(=O)COc2ccc(Cl)cc2Cl)n1	-0.331
COc1ccccc1C(=O)NC(=Nc1nc2ccccc2o1)NC(=O)c1ccccc1OC	-0.544
CC(C)/C=N/NC(=O)c1ccc(Cl)cc1	-0.254
CNC(=O)/C(C#N)=C/c1c(N2CC(C)OC(C)C2)nc2ccccn2c1=O (stereo not given)	-0.492
Cc1ccc(S(=O)(=O)NC(=O)c2cc(C)n(CCCN3CCOCC3)c2C)cc1	0.135
COc1ccc(-c2nnc3ccc(SCC(=O)Nc4nc5ccc(C)cc5s4)nn23)cc1OC	-0.172
CCN(CC)C(=O)CC1(c2ccccc2OC)CCOC(C(C)C)C1 (stereo not given)	-0.162
Cc1onc(COc2ccccc2O)c1Br	0.0389
COC(=O)c1n[nH]nc1-c1ccccc1	-0.18
COc1ccc(CN/C(C)=C(/C#N)C(N)=O)cc1OC	0.858
O=C(Nc1cccc(Cl)c1)Nc1ccc2c(c1)OCO2	-0.0319
Cc1ccc(-c2csc(N3CCC(C(N)=O)(N4CCCCC4)CC3)n2)cc1	0.000968
COc1ccc(NC(=O)Nc2ncccc2C)cc1	-0.216
CCOc1ccc(NC(=O)CCCN2C(=S)NC(C)(C)CC2C)cc1 (stereo not given)	-0.466
C(=N\Nc1ccccc1)/c1ccc(N2CCOCC2)cc1	0.117
CC1=NN(S(=O)(=O)c2ccc(F)cc2)C(=O)c2ccccc2O1	0.439
COc1ccccc1NC(=O)/C(=C/c1cccc([N+](=O)[O-])c1)c1ccccc1	-0.304
COC(=O)Cn1cc(C(=O)c2cccs2)c2ccccc21	-0.534

Structure (SMILES)	z-score
O=C(Nc1cccc2ccccc12)/C(Cl)=C/c1ccccc1	-0.243
O=C(NCCCN1CCOCC1)C(=O)N/N=C/c1ccccc1	0.000949
O=C(C1COc2ccccc2O1)N1CCCC1 (stereo not given)	0.642
O=C(Nc1nnc(SCC(=O)N2CCCc3ccccc32)s1)c1ccccc1	-0.222
CCCCn1c(SCC(N)=O)nnc1-c1ccco1	-0.00653
Cn1c(SCc2c(F)cccc2Cl)nnc1-c1cnccn1	0.554
COC(=O)c1cc2ccsc2n1CC(=O)NCC1CCCO1 (stereo not given)	-0.0449
O=C(Cc1ccccc1)NNC(=O)c1cccs1	0.27
Oc1ccc2ccccc2c1CNn1cnnc1	0.00272
Cc1ccc(C(C(=O)NC2CCCC2)N(C(=O)CCC(=O)Nc2cc(C)on2)c2ccccc2)cc1 (stereo not given)	-0.462
COC(=O)CN(c1ccccc1OC)S(=O)(=O)c1ccccc1	-0.197
Cc1cn(C(=O)c2ccccc2)c(=S)n1-c1ccc(Cl)cc1	-0.162
COc1cccc(CNC(=O)c2nnn(-c3ccc(OC(F)(F)F)cc3)c2N)c1	0.0253
COc1ccc(-n2nc(C(=O)NCC(=O)N3CCN(C)CC3)c3ccccc3c2=O)cc1OC	-0.00987
Cc1ccc(NNS(=O)(=O)c2ccc(C)cc2)cc1	-0.0783
Cc1ccc(NC(=O)CSc2nc(NS(=O)(=O)c3ccc(C)cc3)cc(=O)[nH]2)cc1	-0.139
CCC(=O)Nc1cc(NC(=O)CSc2nnc(C(C)C)n2CC)ccc1C	0.0357
O=c1c([N+](=O)[O-])cc(C(F)(F)F)cn1Cc1c(Cl)cccc1Cl	0.162
Cn1c(SCC(=O)NCc2ccccc2)nnc1-c1ccc(NC(=O)CCc2ccccc2)cc1	0.00419
O=C(NCCCn1ccnc1)C(=O)NCc1ccccc1	-0.00246
CN(NC(=O)c1ccc(Cl)cc1)c1nc(-c2ccccc2)nnc1C(F)(F)F	-0.162
Oc1ccc(C2Nc3cccc4cccc(c34)N2)c(O)c1	-0.102
O=C(CSc1nnc(Cc2ccccc2)n1Cc1ccco1)NC12CC3CC(CC(C3)C1)C2	0.781

Structure (SMILES)	z-score
O=C(NCCC1=CCCCC1)C1CCCN(S(=O)(=O)c2ccccc2)C1 (stereo not given)	-0.232
CC1(C)CC(=O)C2=C(C1)Oc1nc3ccccc3cc1C2C(C#N)C#N (stereo not given)	-0.446
COc1cccc(C(=O)N2CCN(Cc3cc(Br)ccc3OC)CC2)c1	-0.0474
Cc1ccc(NS(=O)(=O)c2cccc(C(=O)N/N=C/c3ccc4c(c3)OCCO4)c2)c(C)c1	-0.361
O=C(O)c1ccc(CSc2nnc(-c3ccco3)o2)cc1	-0.282
CCCCOc1ccc(S(N)(=O)=O)cc1	0.195
CCOC(=O)CC1=C(C(=O)OCC)C(c2ccc(C)o2)C(C#N)=C(N)O1 (stereo not given)	0.162
COC(=O)Nc1ccc(OC)c(OC)c1	0.503
CCOCCCNC(=O)c1ccccc1SCC	-0.605
Cc1nnc(SCC(=O)NCc2cccs2)[nH]c1=O	-0.0582
Clc1ccc(-c2noc(CSc3nnc(Cc4cccs4)n3-c3ccccc3)n2)cc1	0.0246
CCN(CC(=O)NCc1cccs1)c1nnnn1-c1ccccc1	0.403
COc1ccc(NC(=O)C(C)Sc2ccccc2)cc1 (stereo not given)	-0.199
Cn1nnc(NC(=O)c2ccc3ccccc3c2)n1	-1.31
CCNC(=O)CC1C(=O)N(c2ccccc2)C(=O)N1CCc1ccc(OC)c(OC)c1 (stereo not given)	-0.356
O=C(Nc1cccc2ccccc12)OC1C=CS(=O)(=O)C1 (stereo not given)	-0.073
COC(=O)c1nc(NC(=O)c2ccccc2)n[nH]1	-0.318
COC(=O)Cc1c(C)c2ccc(OCC(=O)N(C)C)cc2oc1=O	-0.0906
Cc1occc1-c1nnc(SCC(=O)N2CCOCC2)n1CC(C)C	0.565
COc1ccc(S(=O)(=O)NCc2ccco2)cc1-c1nnc2c3ccccc3c(C)nn12	-0.708
CC(NC(=O)c1cc2c(s1)CCCC2)C(C)(C)C (stereo not given)	-0.205
Cc1ccc(C(=O)COC(=O)CNC(=O)c2ccc(N3C(=O)c4ccccc4C3=O)cc2)cc1C	0.225
Cc1cc(C)nc(Nc2n[nH]c(Cc3ccccc3)n2)n1	-0.469

Structure (SMILES)	z-score
Cc1cc(NC(=O)c2ccco2)no1	-0.12
Cc1cc(N2CCc3ccccc32)n2ncnc2n1	-0.0199
C=CC(=O)N1c2ccccc2Sc2ccc(NC(=O)OCC)cc21	-0.00168
O=C(OCC(=O)N1CCc2ccccc2C1)c1ccc(N2CCOCC2)c([N+](=O)[O-])c1	-0.0629
CCOC(=O)Nc1cc(OC)c(OC)cc1Cc1nccc2cc(OC)c(OC)cc12	0.596
c1ccc2c(c1)CCOC2CNCCCN1CCCCC1 (stereo not given)	-0.111
Cc1cc(C)nc(NC(=O)C(c2ccccc2)c2ccccc2)n1	-0.0816
CCOC(=O)N1CCC(Nc2c(-c3ccc(C)cc3)c(=O)c2=O)CC1	-0.615
CC(C)c1ccc(CN(C(=O)c2cc3ccccc3oc2=O)C2CCS(=O)(=O)C2)cc1 (stereo not given)	-0.335
CCCN(Cc1ccccc1)C(=S)Nc1cccc(C(F)(F)F)c1	-0.985
CC12CC3(C)CC(C)(C1)CC(C(=O)NC(=S)NC(C)(C)C)(C2)C3	0.0601
Cc1cc(C(F)(F)F)n2ncc(-c3ccc(F)cc3)c2n1	-0.121
Cc1nnc(NC(=O)CCC(=O)NCc2cccs2)s1	-0.0957
O=S(=O)(NC1=NCCCCC1)c1cccs1	-0.519
CCOCCCNC(=O)CN1CCN(c2ccc(F)cc2)CC1	0.089
CC(OC(=O)c1ccncc1)C(=O)Nc1cc(S(=O)(=O)N2CCCCC2)ccc1Cl (stereo not given)	-0.113
CCCCn1nc2cc(C(=O)NCc3ccccc3)ccc2c1OCC	-0.255
CCOC(=O)c1oc2ccc(S(=O)(=O)n3nc(-c4ccc(C)cc4)cc3N)cc2c1C	-0.468
Cc1ccc(C2OC34CCCCCC3C(C#N)(C(=N)O4)C2(C#N)C#N)cc1 (stereo not given)	-0.327
CC(=O)C1=C(O)C(=O)N(CCNCCO)C1c1ccccc1 (stereo not given)	0.0969
Cc1cc(NC(=O)CS(=O)(=O)c2cn(C)c3ccccc23)no1	1.39
CN(C)S(=O)(=O)c1ccc(C(=O)OCCCN=C2NS(=O)(=O)c3ccccc32)cc1	-0.233
Cc1ccc(NC(=O)CCN2C(=O)CSC2=O)c(C)c1	-0.126

Structure (SMILES)	z-score
COc1cccc(NC(=O)COC(=O)c2cc(S(=O)(=O)N3CCOCC3)ccc2C)c1	0.12
Cc1ccsc1/C=N/n1c(C2CCCCC2)n[nH]c1=S	0.383
Cc1cc(C)c(NS(=O)(=O)c2ccc(Cl)c(C(=O)O)c2)c(C)c1	1.03
Cc1ccc(-c2nc(CS(=O)CC(=O)NCc3ccc(Cl)cc3)c(C)o2)cc1 (stereo not given)	-0.092
O=C(Nc1ccc(-c2cn3ccsc3n2)cc1)c1ccc(F)c(S(=O)(=O)N2CCOCC2)c1	-0.0159
CCc1ccc(-n2cc(-c3ccc([N+](=O)[O-])cc3)[nH]c2=S)cc1	0.69
O=C(Nc1ccc2c(c1)OCO2)c1cccc(Cl)c1	-0.323
CCCCc1nnc(NC(=O)CS(=O)(=O)Cc2ccccc2)s1	-0.243
C#CCn1cnc2c(cnn2-c2ccc(C)c(C)c2)c1=O	0.172
CS(=O)(=O)N1CCN(c2ccccc2NC(=O)c2ccc(Br)o2)CC1	-0.21
CCN1C(=O)c2ccc(C(=O)Nc3nccs3)cc2C1=O	-0.418
CCOC(=O)c1ccc(NC(=O)CC2COc3ccccc3O2)cc1 (stereo not given)	0.0513
CSc1nc(C)cc(SCCO)n1	-0.149
COc1ccc(C(C)NC(=S)NC2CCCC2)cc1OC (stereo not given)	-0.443
COc1ccc(-n2ncc3c(NCC4CCCO4)ncnc32)cc1 (stereo not given)	0.0525
Cc1ccc(-n2nc(-c3ccccc3)cc2Nc2ccccc2N)cc1	-0.38
O=C(O)C1C2C=CC(O2)C1C(=O)NCc1ccc2c(c1)OCO2 (stereo not given)	0.137
O=C(CCCC(=O)NCc1ccccc1)NCc1ccccc1	-0.141
O=C(NCCCn1ccnc1)c1ccc(Br)o1	-0.553
C=CCNC(=S)NNC(=O)c1csc(C)c1CC	-0.368
N#Cc1nc(-c2ccc(OCc3ccccc3)cc2)oc1NCc1ccco1	-1.13
O=S(=O)(NCc1cccnc1)c1ccc2c(c1)OCCO2	0.0622
Cc1ccc(S(=O)(=O)N2CCC(C(=O)NCc3ccccc3Cl)CC2)cc1	0.217
